This is an account of results in article PMC11240954 (International Journal of Molecular Sciences, 2024).

The data set in a line: in vitro. The method, then: Ltd.) at 37 °C with 5% CO2 enrichment.
The 3-(4,5-dimethylthiazol-2-yl)-2,5-diphenyltetrazolium bromide assay (MTT assay) was used to assess the cytotoxicity of compounds against the viral host cells (MDCK, Raw 246.7, or Vero). This assay relies on the reduction of the yellow MTT compound to a dark blue formazan product by viable and metabolically active cells. Viral host cells were cultured in 96-well plates and incubated at 37 °C in a 5% CO2 atmosphere and then treated with various concentrations of the test compounds together with further incubation for 24 h. After incubation, 100 μL of a 5 mg/mL MTT solution was added to each well and incubated for 2–4 h at 37 °C. The supernatant was then discarded, and 100 μL of 100% DMSO was added to dissolve the formazan salts with vigorous agitation for 10 min at room temperature. The absorbance at 570 nm was measured along with 630 nm as a reference or background control using a spectrophotometer. Cytotoxicity was determined by comparing the absorbance values in the test and control wells expressed as a percentage. A total of 100 μL DMSO was used for the negative control, while 100 μL of culture medium represented the positive control. All experiments were repeated three times, and the mean values with standard error were reported. Non-linear regression analysis was performed using GraphPad Prism software to determine the CC50 (concentration at which 50% of cells are killed).

Where [1] appears, read: African green monkey, CC50 Human Adenovirus-5/Vero.
Where [2] appears, read: mouse, CC50 Murine Norovirus-1/Raw 246.7.

Consider `NCCCCC(N)C(=O)NCCNC(=O)C(Cc1c[nH]c2ccccc12)NC(=O)c1cc(Br)ccc1NC(=O)c1ccc2ccccc2c1` (centres unmarked) [NAPL], for which the CC50 reads like this: under setting [1], 96.1 µM; under setting [2], 40 µM.
For `NCCN=C(NCCN)NCCNC(=O)C(Cc1c[nH]c2ccccc12)NC(=O)c1cc(Br)ccc1NC(=O)c1ccc2ccccc2c1` (centres unmarked) [compound 1083], in that order: 485 µM and 75.5 µM.
Taken in the same sequence, the figures for `N=C(N)NCCNC(=O)C(Cc1ccccc1)NC(=O)c1cc(Br)ccc1NC(=O)c1ccc2ccccc2c1` (centres unmarked) [compound 1091] were 105 µM and 45.6 µM.
Taken in the same sequence, the figures for `NCCNC(=O)C(Cc1c[nH]c2ccccc12)NC(=O)c1cc(-c2ccccc2-c2ccccc2)ccc1N` (centres unmarked) [Sau-22] were 15.2 µM and 9.3 µM.
In the case of `NCCNC(=Nc1ccccc1)NCCNC(=O)C(Cc1ccccc1)NC(=O)c1cc(Br)ccc1NC(=O)c1ccc2ccccc2c1` (centres unmarked) [compound 1096], the CC50 is, setting by setting: under setting [1], 57.3 µM; under setting [2], 4.7 µM.
Taken in the same sequence, the figures for `NCCNC(=O)C(Cc1c[nH]c2ccccc12)NC(=O)c1cc(-c2ccc3ccccc3c2)ccc1N` (centres unmarked) [compound 610] were 16.7 µM and 13.9 µM.
Taken in the same sequence, the figures for `NCCNC(=Nc1ccccc1)NCCNC(=O)C(Cc1c[nH]c2ccccc12)NC(=O)c1cc(Br)ccc1NC(=O)c1ccc2ccccc2c1` (centres unmarked) [compound 758] were 152 µM and 16.2 µM.
